Whole data set: some 81,000 sequences, median “one-hybrid fitness for binding parS DNA” near -0.17, cut for the highest 2% near 0.51. Some of the results follow.
B1: Caulobacter ParB omega fusion; a variant is named by its letters at X, in order, B8GW30 (parent)
chain: MESVVVGEPGMSEGRRGLGRGLSALLGEVDAAPAQAPGEQLGGSREAPIEILQRNPDQPRRTFREEDLEDLSNSIREKGVLQPILVRPSPDTAGEYQIVAGERAWRAAQRAGLKTVPIMVRELDDLAVLEIGIIENVQRADLNVLEEALSYKVLMEKFERTQENIAQTIGKSXSHVANXMRLLXLPDEVQSYLVSGELTAXHARAIAAAADPVALAKQIIEGGLSVRETEALARKAPNLSAGKSKGGRPPRVKDTDTQALESDLSSVLGLDVSIDHRGSTGTLTITYATLEQLDDLCNRLTRGI

Variants of: B1
Experiment: one-hybrid fitness for binding parS DNA (scaled: cognate 1, non-cognate 0); higher = stronger binding
Settings: with parS DNA site
How it was run: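 Pre- and post-selection plasmids were Illumina-sequenced, three replicate libraries were pooled, and any variant with under 10 reads was removed. The libraries were Caulobacter ParB with four specificity codons randomised, selected in E. coli USO through a HIS3 reporter whose site is 19 bp from the promoter. Cells grew 48 hours at 37°C on M9 without histidine, with 0.1 mM IPTG and 5 mM 3-AT. Fitness is the log change in variant-to-wild-type read ratio, rescaled against cognate and non-cognate.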

Variant	one-hybrid fitness for binding parS DNA
SLQM	≤ 0.2
WLFR	≤ 0.2
AFLS	≤ 0.2
MCII	≤ 0.2
CNNG	≤ 0.2
PMYL	≤ 0.2
DYLN	≤ 0.2
RLDR	≤ 0.2
CCLN	≤ 0.2
PMQH	0.267
GNQT	≤ 0.2
VWIG	≤ 0.2
QHVN	≤ 0.2
YNDM	≤ 0.2
PMDV	≤ 0.2
IDNP	≤ 0.2
TLKH	≤ 0.2
LFIS	≤ 0.2
ALIL	≤ 0.2
EFEC	≤ 0.2
HFMS	≤ 0.2
CLSV	≤ 0.2
INPF	≤ 0.2
VMVP	≤ 0.2
KCDC	≤ 0.2
YMVD	≤ 0.2

Variant	one-hybrid fitness for binding parS DNA
RIFR	≤ 0.2
TITQ	≤ 0.2
QGHN	≤ 0.2
SYEL	≤ 0.2
LPKS	≤ 0.2
AYSV	≤ 0.2
YMLT	≤ 0.2
TLRY	≤ 0.2
RRFM	≤ 0.2
STCA	≤ 0.2
ESFS	≤ 0.2
HRLF	≤ 0.2
AKHH	≤ 0.2
ANEE	≤ 0.2
RHQM	0.276
GNGK	≤ 0.2
HNRK	≤ 0.2
LVES	≤ 0.2
IDIR	≤ 0.2
WRNP	≤ 0.2
PGYS	≤ 0.2
YQDF	0.303
CASD	≤ 0.2
SKPW	≤ 0.2
DVHG	≤ 0.2
KQKT	≤ 0.2

Variant	one-hybrid fitness for binding parS DNA
PLYK	≤ 0.2
KGDV	≤ 0.2
GRCG	≤ 0.2
HFDY	≤ 0.2
NYIV	≤ 0.2
LLPD	≤ 0.2
QMTQ	≤ 0.2
TTES	≤ 0.2
VRGC	≤ 0.2
MNGS	≤ 0.2
EPLG	≤ 0.2
RCIV	≤ 0.2
EPSN	≤ 0.2
WPTC	≤ 0.2
TIRL	≤ 0.2
LYHN	≤ 0.2
LARL	≤ 0.2
TWPC	≤ 0.2
HPRE	≤ 0.2
EKRF	0.226
SSFM	≤ 0.2
EASI	≤ 0.2
PMNK	≤ 0.2
LQIK	≤ 0.2
PHPE	≤ 0.2
VTDD	≤ 0.2

Variant	one-hybrid fitness for binding parS DNA
PSDQ	≤ 0.2
HLKL	≤ 0.2
SNWS	≤ 0.2
YHHH	≤ 0.2
MWAT	≤ 0.2
HDDC	≤ 0.2
DCES	≤ 0.2
ALVA	≤ 0.2
SKYV	≤ 0.2
QRHH	≤ 0.2
MPAT	≤ 0.2
EAWG	≤ 0.2
PDDG	≤ 0.2
LYCG	≤ 0.2
GFDR	≤ 0.2
HHHG	≤ 0.2
MTSQ	≤ 0.2
WKIT	0.213
PGRL	≤ 0.2
QGVW	≤ 0.2
CCRF	≤ 0.2
VKWC	≤ 0.2
IKIA	≤ 0.2
GLCA	≤ 0.2
LEGA	≤ 0.2
IWLG	≤ 0.2

Variant	one-hybrid fitness for binding parS DNA
INDV	≤ 0.2
RFIS	0.777
ETNP	≤ 0.2
MRHH	≤ 0.2
CVFS	≤ 0.2
NFPV	≤ 0.2
MSSY	≤ 0.2
TSAR	≤ 0.2
KQRD	≤ 0.2
NRRS	≤ 0.2
MFAC	≤ 0.2
KKWG	≤ 0.2
ERLH	≤ 0.2
RCMQ	≤ 0.2
LPKW	≤ 0.2
MYAF	≤ 0.2
CTAR	≤ 0.2
HFSN	≤ 0.2
ALWW	≤ 0.2
QPVL	≤ 0.2
VRPR	≤ 0.2
TPVW	≤ 0.2
SLLR	≤ 0.2
AGIT	≤ 0.2
CTHQ	≤ 0.2
KFTV	≤ 0.2

Variant	one-hybrid fitness for binding parS DNA
CAIY	≤ 0.2
PRNE	≤ 0.2
ETHS	≤ 0.2
HLLV	≤ 0.2
AQDR	≤ 0.2
QYLV	≤ 0.2
AVHD	≤ 0.2
FSNL	≤ 0.2
GHCR	≤ 0.2
PGKY	≤ 0.2
ALYG	≤ 0.2
TVKQ	≤ 0.2
CPCW	≤ 0.2
WMNY	≤ 0.2
LEQM	≤ 0.2
LHFS	≤ 0.2
LAQN	≤ 0.2
HPPW	≤ 0.2
GRLS	≤ 0.2
HPRR	≤ 0.2
KRTG	≤ 0.2
FAVS	≤ 0.2
EMNL	≤ 0.2

Reference: a collection of fitness landscapes (doi:10.1016/j.celrep.2020.107928)
